The target of assay [1] is T1, IL-13Rα2, biotinylated (human, UniProt Q14627 27-343, biotinylated (site not stated)).
T1 chain: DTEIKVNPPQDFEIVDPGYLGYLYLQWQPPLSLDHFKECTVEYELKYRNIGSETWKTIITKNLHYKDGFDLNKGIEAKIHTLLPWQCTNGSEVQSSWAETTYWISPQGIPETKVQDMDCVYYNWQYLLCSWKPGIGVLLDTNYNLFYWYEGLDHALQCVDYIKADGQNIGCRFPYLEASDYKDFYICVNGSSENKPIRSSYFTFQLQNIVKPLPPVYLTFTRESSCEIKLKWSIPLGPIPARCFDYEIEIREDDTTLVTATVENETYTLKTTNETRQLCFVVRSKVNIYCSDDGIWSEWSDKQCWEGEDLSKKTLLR
Description: SPR; kinetic.

Assay [2] has as its target T1, IL-13Rα2, biotinylated. Description: SPR; kinetic.

Where two headings read alike, the source gives them in different places.

B1: wild-type human IL-13 (ligand)
chain: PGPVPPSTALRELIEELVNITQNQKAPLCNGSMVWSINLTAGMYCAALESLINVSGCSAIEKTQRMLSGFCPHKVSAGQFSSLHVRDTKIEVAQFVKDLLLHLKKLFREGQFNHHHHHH
On to B1, for which the Kd with IL-13Rα2, biotinylated [1] stood at 1 pM; with IL-13Rα2, biotinylated [2] it was 1 pM.

The record behind these values is patent US20150056162A1 (published 2015).
